Data on 140 compounds can be found in PubChem BioAssay AID2202238 (Ras Initiative Chemistry Research Team, Frederick National …, 2025).

Hit rate of the full screen: of about 2,200 compounds, fewer than 10 were called active. Some of the results follow. Entries without a call are filed as inconclusive in the source.

The target of the experiment is GTPase KRas (Homo sapiens) (UniProt P01116). Put plainly: Covalent labelling of cysteine mutants by fragments, read by mass spectrometry (AID 2202238). The arrangement: protein at 5 µM with 500 µM competing thiol for 1.5 h. The settings on record: KRAS G12D cysteine mutants, disulfide tethering, MALDI-TOF labeling; stronger effect = higher value; H27C mutant labeling; fragment at 500 µM.
UniProt P01116, sequence (P01116 whole entry, looked up, the tested form may be a part): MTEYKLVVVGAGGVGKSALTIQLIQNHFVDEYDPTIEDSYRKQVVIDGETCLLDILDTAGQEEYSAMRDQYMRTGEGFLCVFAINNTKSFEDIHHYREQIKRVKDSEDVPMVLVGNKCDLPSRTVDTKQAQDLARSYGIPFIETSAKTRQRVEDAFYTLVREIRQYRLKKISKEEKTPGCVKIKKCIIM
`CC(Cn1ncc2ccccc21)C(=O)NCCS` (stereo not given) came in with a percent labeling of 30.9%. For `O=C(NCCS)c1cc(Br)cc2[nH]c(=O)[nH]c12` the value was 46.9%; for `CC(C)n1cc2cc(NC(=O)CCS)ccc2n1`, 35.4%; for `O=C(CCS)NC1(c2ncon2)CCOCC1`, 7.9%.

Turning to `O=C(CCS)N1CCC(O)(C(F)(F)F)CC1`, the percent labeling was 27.3%. To `Cc1cc(CN2CCN(C(=O)CCS)CC2)on1` belongs 34%; to `O=C(NCCS)c1ccc(-c2noc(C(F)F)n2)cc1`, 22.7%. To `Cc1nc2ccc(NC(=O)CCS)cc2c(=O)[nH]1` belongs 39.8%; to `Cc1cc(C)c(CNC(=O)CCS)c(=O)[nH]1`, 40.9%; to `Cc1cc(=O)oc2cc(OCC(=O)NCCS)ccc12`, 22.8%. To `CN(Cc1ccc2n[nH]nc2c1)C(=O)CCS` belongs 41.2%; to `O=C(Cc1coc2ccc3ccccc3c12)NCCS`, 22.8%. As to `O=C(CCS)NCC1CC2(CC2)S(=O)(=O)N1` (stereo not given), the percent labeling stood at 28.7%. To `CN1CCCC(c2cccc(C(=O)NCCS)c2)C1` (stereo not given) belongs 68.1%; to `O=C(CCS)N1CCc2ccccc2C1c1nc2ccccc2[nH]1` (stereo not given), 36.9%. Turning to `O=C(Cc1ccc(C2CCCCC2)cc1)NCCS`, the percent labeling amounted to 25.6%. To `O=C(CCS)Nc1cccc(OCc2cccc(F)c2)c1` belongs 26.5%; to `CC(C)(C)OC(=O)N1CC2(CCN2C(=O)CCS)C1`, 21.7%. In the case of `COc1ccc(S(C)(=O)=O)cc1C(=O)NCCS`, the percent labeling was 52.2%. For `O=C(CCS)NCC(O)c1cc(Cl)c2c(c1)OCCO2` (stereo not given) the value was 48.2%; for `CC(=O)Nc1cc(NC(=O)CCS)ccc1F`, 35%; for `CC(C)(C)C1CCC(O)(CNC(=O)CCS)CC1` (stereo not given), 24.8%. `Cc1nn(C)c(-n2cncn2)c1C(=O)NCCS` had a percent labeling of 39.3%. The compound `Cc1cccn2cc(-c3cccc(NC(=O)CCS)c3)nc12` registered a percent labeling of 30.6%. In the case of `O=C(CCNC(=O)c1cccs1)NCCS`, the percent labeling turned out to be 25.4%. To `O=C(Cn1cnc2sccc2c1=O)NCCS` belongs 33.9%.

In the case of `CCn1cnnc1-c1ccc(C(=O)NCCS)cc1`, the percent labeling was 39.9%.

Turning to `CN(Cc1ccccc1Oc1ccc(Cl)c(Cl)c1)C(=O)CCS`, the percent labeling is 27.4%.

In the case of `O=C(NCCS)C1CCCCN1C1CCCC1` (stereo not given), the percent labeling came out at 37.5%. For `CC1(C)C=Cc2cccc(NC(=O)CCS)c2O1` the value was 33.6%; for `O=C(CCS)NCC1CCN(c2ccncc2)CC1`, 49.3%. In turn, `CN(c1ccccc1)c1nc(C(=O)NCCS)cs1` displayed a percent labeling of 31.4%.

On to `O=C(CCS)NCCN1CCN(C(=O)C2CCC2)CC1`, for which the percent labeling was 36.4%. For `Cc1cc(NC(=O)CCS)nn1-c1cccc(Cl)c1` the value was 37.4%. For `COC1(c2cccc(C(=O)NCCS)c2)COC1` the value was 44.5%.

Regarding `CC(F)(F)c1cncc(CNC(=O)CCS)c1`, the percent labeling came to 32.6%. `Cc1c(C(=O)NCCS)cnn1CCC(C)C` displayed a percent labeling of 39.2%. For `O=C(CCS)N(Cc1ccccc1)Cc1ccccc1` the value was 28.9%. To `Cn1c(=O)n(C)c2cc(N3CCCCC3)c(NC(=O)CCS)cc21` belongs 31.2%; to `O=C(CCS)N(CCN1CCOCC1)c1ccccc1F`, 42%.

As to `CC(C)CCc1cc(NC(=O)CCS)n[nH]1`, the percent labeling worked out at 44.1%. To `Cc1cccn2cc(COc3ccccc3C(=O)NCCS)nc12` belongs 26.7%; to `O=C(NCCS)c1cnc(-c2cnccn2)s1`, 37.6%. Compound `CC1(C)C(=O)Nc2ccc(CNC(=O)CCS)cc21` showed a percent labeling of 42.1%. To `O=C(CN1C(=O)CCOc2ccccc21)NCCS` belongs 35.2%; to `O=C(CCS)N1CCC(Cn2cncn2)CC1`, 37%; to `O=C(CCS)NCCc1cc(O)cc(F)c1`, 39.9%. To `Cc1nnnn1C(Cc1ccc(F)cc1)C(=O)NCCS` (stereo not given) belongs 41.3%; to `CN(C)Cc1nc2ccc(NC(=O)CCS)cc2[nH]1`, 47.6%. To `Cc1nc(C(F)(F)F)ccc1C(=O)NCCS` belongs 29.6%; to `O=C(NCCS)c1ccn(C2CCOCC2)n1`, 38.6%. `O=C(NCCS)c1cccc(-n2[nH]c(=O)ccc2=O)c1`: the percent labeling is 20.3%. For `Cc1cccc2c(=O)n(CCC(=O)NCCS)cnc12` the value was 38.8%.

Compound `O=C(CCN1C(=O)COc2ccccc21)NCCS` came in with a percent labeling of 27.8%. For `CC(C)(C)OC(=O)N1CCC2(CCN(C(=O)CCS)CC2)CC1` the value was 33.4%; for `CN(C)C(C(=O)NCCS)c1ccccc1` (stereo not given), 38.8%. To `O=C(NCCS)c1cc(C2CCOCC2)[nH]n1` belongs 43.4%.

`CCOC(=O)c1[nH]ncc1C1CCCN(C(=O)CCS)C1` (stereo not given) had a percent labeling of 47.4%. For `O=C(CCS)Nc1ccccc1N1CC2CCC1C2` (stereo not given) the value was 30.9%; for `CC(c1cc(Cl)ccc1Cl)n1nccc1NC(=O)CCS` (stereo not given), 27.7%; for `CNC(=O)N1CCC(NC(=O)CCS)CC1`, 25.8%. To `O=C(CCS)NC1CCN(C2CCOC2=O)CC1` (stereo not given) belongs 29%. To `O=C(CCS)NC1CCN(Cc2ccc(Cl)cc2)CC1` belongs 52.8%. Take `O=C(NCCS)c1nc2ccccn2c1Br`: the percent labeling worked out at 36.9%. For `O=C(CCS)NCCCN(C1CC1)S(=O)(=O)c1cccc(F)c1` the value was 34.4%.

`O=C(CCS)NCc1cc(Br)cc(Cl)n1` came in with a percent labeling of 47.3%. Regarding `Cc1ccn(-c2cccc(NC(=O)CCS)c2)n1`, the percent labeling stood at 35.3%. To `CC(C)(C)OC(=O)N1CCC(O)(C2CCN(C(=O)CCS)CC2)CC1` belongs 32.3%; to `O=C(CCc1cnc2ccccc2c1)NCCS`, 34.4%. For `COc1ccc(OC)c(-c2cc(C(=O)NCCS)no2)c1` the value was 31.6%.

`Cc1c(-c2ccccc2)oc2c(C(=O)NCCS)cccc2c1=O` gave a percent labeling of 22%.

As for `CC1Cn2nc(C(=O)NCCS)cc2C(=O)N1` (stereo not given), the percent labeling was 45.1%. For `O=C(CCCc1ncc(-c2ccccc2)o1)NCCS` the value was 24.1%; for `Cn1cc([C@@H]2OCC[C@H]2C(=O)NCCS)cn1`, 32.5%. In turn, `O=C(CCc1nnc2ccc(Cl)nn12)NCCS` had a percent labeling of 37.9%. For `Cc1nc(COc2cccc(C(=O)NCCS)c2)no1`, the percent labeling stood at 42.2%.

In turn, `O=C(NCCS)c1cc2c(Br)cccc2cn1` gave a percent labeling of 45.1%. Take `Cc1ccc(NC(=O)C2(CNC(=O)CCS)CCCC2)cc1C`: the percent labeling was 29.4%. To `COc1cc(CCNC(=O)CCS)ccc1O` belongs 38.6%; to `O=C(CCS)Nc1cccc(CN2CCCC2=O)c1`, 41.3%.

With `O=C(CCS)NCCn1ccc(C(F)(F)F)n1`, the percent labeling amounted to 27.6%. For `Cc1nc(-c2cccc(C(=O)NCCS)c2)cs1` the value was 35.5%; for `CC1(c2cccc(C(=O)NCCS)c2)NC(=O)NC1=O` (stereo not given), 48.5%; for `Cn1c(C(=O)NCCS)c(Cl)c2ccccc21`, 26.1%.

As for `O=C(NCCS)c1ccc(Cn2cc(Cl)cn2)o1`, the percent labeling amounted to 50.2%. To `NC(=O)c1cc(NC(=O)CCS)cc(C(N)=O)c1` belongs 49.9%; to `O=C(CCS)Nc1cccc(Cn2cccnc2=O)c1`, 35.8%; to `CCOc1ccc2ccccc2c1C(=O)NCCS`, 33.3%. For `O=C(CCS)NCc1ccn(-c2c(F)cccc2F)n1` the value was 46%. To `COC(=O)C(Cc1cn(C)nc1C)NC(=O)CCS` (stereo not given) belongs 26.7%; to `O=C(Cc1csc(-c2cnccn2)n1)NCCS`, 39.6%; to `CCC(OC1CCCC(C)C1)C(=O)NCCS` (stereo not given), 24.2%. With `O=C(CCn1sc2ccccc2c1=O)NCCS`, the percent labeling was found to be 9.8%. For `CC(C)c1ccc2c(c1)CC[C@H]1[C@](C)(CNC(=O)CCS)CCC[C@]21C` the value was 8.4%; for `CC1(CNC(=O)CCS)CCS(=O)(=O)CC1`, 28.2%.

Take `O=C(CCS)N1CCCN(C(=O)c2ccc[nH]c2=O)CC1`: the percent labeling was 34.6%.

Regarding `O=C(CCS)N1CCN(c2cncc3nnnn23)CC1`, the percent labeling came out at 11.4%. For `Cc1ccc(-c2cc(C(=O)NCCS)[nH]n2)cc1` the value was 25.2%; for `O=C1CC(C(=O)NCCS)C2CCCCC2N1` (stereo not given), 29%; for `CC1C(C(=O)NCCS)CCN1c1ccccc1` (stereo not given), 14.8%. To `O=C(CCS)NC1CCC2(CC1)CC(O)C2` (stereo not given) belongs 38.7%.

Consider `O=C(O)Cc1ccc(S(=O)(=O)N2CCC(C(=O)NCCS)CC2)cc1`, for which the percent labeling was 23.9%. To `COC(=O)c1cc(=O)[nH]c2c1CN(C(=O)CCS)CC2` belongs 36.5%; to `COc1c(C)cnc(Cn2ccc(NC(=O)CCS)n2)c1C`, 39.9%.

Consider `COc1ccc2c(c1)c(C(=O)NCCS)c(C)n2C`, for which the percent labeling is 33.8%.

On to `O=C(CCS)N1CCN(C(=O)Nc2ccc(Cl)cc2)CC1`, for which the percent labeling was determined as 25.9%. For `O=C(CCS)Nc1ccc2c(c1)ncn2CC(F)(F)F` the value was 42.8%; for `CC1(C)CC(C(=O)NCCS)C1C(F)(F)F` (stereo not given), 21.3%.

`C[C@H](C(=O)NCCS)N1Cc2ccccc2C1=O` showed a percent labeling of 33.9%. To `CCOC(=O)c1[nH]ncc1C1CCN(C(=O)CCS)CC1` belongs 59.2%.

For `CN(CC(=O)Nc1ccc2c(c1)OCCO2)C(=O)CCS`, the percent labeling was 42.5%. For `COc1cccc(Cn2nc(C)c3c(NC(=O)CCS)[nH]nc32)c1` the value was 31.2%. For `O=C(NCCS)C(F)(F)c1ncc[nH]1` the value was 25.3%.

In the case of `COc1ccc2c(c1)CC1(CCN(C(=O)CCS)CC1)C2=O`, the percent labeling amounted to 48.5%. To `CCc1oc2ccccc2c1CC(=O)NCCS` belongs 26.4%; to `O=C(CCS)Nc1ccc(-c2nnc3n2CCOC3)cc1`, 48.3%; to `O=C(CNC(=O)c1cc2ccccc2[nH]1)NCCS`, 27%.

As for `COc1ccnc(N2CCN(C(=O)CCS)CC2)n1`, the percent labeling stood at 41.8%. In turn, `COc1ccc(-n2nc(C(=O)NCCS)cc2C)cc1` came in with a percent labeling of 43.4%. For `O=C(NCCS)c1ccc(Cc2n[nH]c(=O)c3ccccc23)cc1F` the value was 31.8%; for `Cc1nn(C2CCOCC2)cc1NC(=O)CCS`, 33.3%; for `Cc1cc(C)n2nc(CC(=O)NCCS)nc2n1`, 30.9%. For `Cc1nc(C2CCN(C(=O)CCS)CC2)no1` the value was 28.9%; for `O=C(NCCS)c1ccc2nnc(-c3ccccc3)n2c1`, 46.5%; for `Cc1nn(C)c(C)c1CC(=O)N1CCC(C(=O)NCCS)CC1`, 36.5%. With `O=C(CCS)N1CCC(c2nc(-c3ccc(F)cc3)no2)(C(F)(F)F)C1` (stereo not given), the percent labeling is 11.4%. For the compound `Cc1nc2c(cc(OCCNC(=O)CCS)c3ccsc32)s1`, the percent labeling turned out to be 24.4%.

Turning to `Cc1cccc(NCC2CCCN2C(=O)CCS)n1` (stereo not given), the percent labeling was determined as 51.7%.

`O=C(NCCS)C1CCN(C(=O)c2ccccc2)C1` (stereo not given): the percent labeling was 44.1%. To `Cc1ccc(Nc2nccc(C(F)(F)F)n2)cc1C(=O)NCCS` belongs 16.1%; to `Cc1nc2cc(F)cc(C(=O)NCCS)c2nc1C`, 30.5%. For `O=C(CCS)N1CCC(c2cc(CO)on2)CC1` the value was 34.7%; for `O=C(CCS)N1CCc2c(nc[nH]c2=O)C1`, 35.1%; for `Cc1cc(C)n(C2CN(C(=O)CCS)C2)n1`, 35.8%.

Turning to `O=C(NCCS)c1c(Cl)cnn1C1CCCC1`, the percent labeling is 28.1%.

Compound `CC(C)CN(Cc1ccccn1)C(=O)CCS` came in with a percent labeling of 36.1%. To `Cc1nn(C)c(-n2cncn2)c1NC(=O)CCS` belongs 29%.

With `O=C(CCS)NCC(=O)N1CCN(c2ccccc2)CC1`, the percent labeling came out at 31%. To `O=C(NCCS)c1ccc(Oc2ccc(F)cc2Br)nc1` belongs 25.7%; to `O=C(NCCS)c1ccnc2nc(C3CCOCC3)[nH]c12`, 43.4%.
